PubChem BioAssay AID686979 (National Center for Advancing Translational Sciences (NCATS), 2013)
Screen size: about 420,000 compounds; about 50,000 (12%) were called active. Inconclusive means that the source gave no clear call. Such entries were picked first, then a sample of the others. Calls follow the shape of the dose curve; as a rule, active = well fitted inhibition curve with a large enough effect; inconclusive = small, poorly fitted or top-dose-only effect; inactive = flat fitted curve, though single readings scatter. No potency is given beside an inconclusive call; the fits are too rough.

Test: qHTS for Inhibitors of human tyrosyl-DNA phosphodiesterase 1 (TDP1): qHTS in cells in presence of CPT; also: nearly all actives have a fitted effect of over 55% in size
Conditions: chicken DT40 Tdp1-/-;hTDP1 cells + 20 nM CPT, ATP luminescence, 48 h; activity change, negative = growth inhibition: at 46.2 µM (top of the series) unless noted
Outline: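 Chicken DT40 Tdp1-/- cells stably complemented with human TDP1 were seeded at 400 cells/well in medium containing 20 nM camptothecin, exposed to pin-transferred compounds, and grown at 37 °C for at least 48 hr. Viability was read as ATP luminescence.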
% is scaled to controls: 0 for no effect and ±100 for the full control effect; potency is read from the fitted curve at half-maximal effect; tags tell the direction and shape of the fitted curve.

Compound | Potency | activity change, negative = growth inhibition
O=c1c(-c2ccccc2)nc2cnc(N3CCNCC3)nc2n1-c1ccccc1 | inconclusive [inhibitor, single point] | 
Nc1nc(NCC2CCCO2)nc(Nc2ccccc2)c1[N+](=O)[O-] (stereo not drawn) | inconclusive [inhibitor, single point] | 
CS(=O)(=O)Nc1cccc(C2=NN(C(=O)c3cccc([N+](=O)[O-])c3)C(c3cccs3)C2)c1 (stereo not drawn) | inconclusive [inhibitor, single point] | 
CCCCNC(=O)c1ccccc1SCC(=O)NC1CCCCCCC1 |  | inactive: -24.2%
COc1ccc(-c2cc(C(=O)Nc3cc(C)on3)no2)cc1OC |  | inactive: 0.951%
O=C(COc1ccc(S(=O)(=O)NC2CCCCC2)cc1)NC1CCCC1 |  | inactive: -25.8%
CSc1ccc(/C=C/C(=O)OCC(=O)NC2CCCCCC2)cc1 |  | inactive: -29.8%
Cc1cc(C(=O)COc2ccc(Br)cc2F)c(C)n1CC1CCCO1 (stereo not drawn) |  | inactive: -21.6%
O=C(c1ccccn1)N(Cc1cccs1)C1(C(=O)NC2CCCCC2)CCCCC1 |  | inactive: -14.3%
CCOc1ccc(/C=C(/C#N)c2nnc(N3CCOCC3)n2-c2ccccc2)cc1OC | inconclusive [inhibitor, single point] | 
Cc1ccc(C(=O)NCC(=O)OCC(=O)c2c(N)n(C)c(=O)n(C)c2=O)cc1C |  | inactive: 0.267%
Cc1cc(C)nc(SCC(=O)Nc2ccnc3ccccc23)n1 | active: 1.64 µM | 
COc1cc(/C=N/NC(=S)NCCc2ccccc2)cc(OC)c1OC | active: 25.9 µM | 
CCOC(=O)N1CCN(c2c(NCc3ccc(F)cc3)c(=O)c2=O)CC1 | active: 4.11 µM | 
COc1ccc(CC(=O)Nc2ccc(S(=O)(=O)N3CCCC3)cc2)cc1OC | inconclusive [inhibitor, single point] | 
CN(C)C(CNS(=O)(=O)c1ccc2ccccc2c1)c1ccccc1 (stereo not drawn) | inconclusive [inhibitor, single point] | 
CCOC(=O)c1c(-c2ccccc2)nc2ccc(C)cn12 | inconclusive [inhibitor, single point] | 
CN(c1ccccc1C(=O)Nc1cccc([N+](=O)[O-])c1)S(=O)(=O)c1ccccc1 | inconclusive [inhibitor, single point] | 
CCc1ccc(-c2nc(CS(=O)CC(=O)NCCCN3CCC(C)CC3)c(C)o2)cc1 (stereo not drawn) | inconclusive [inhibitor, single point] | 
CCCC(=O)c1cc(O)c(O)cc1O | inconclusive [inhibitor, single point] | 
COc1ccc2[nH]c(C)c(CCN(Cc3cccs3)C(=S)Nc3cccc(F)c3)c2c1 | inconclusive [inhibitor, single point] | 
O=c1oc2ccccc2c(NC(c2ccccc2)c2ccccc2)c1[N+](=O)[O-] | inconclusive [inhibitor, single point] | 
COc1ccc(C2NCCCC2c2ccccc2)cc1 (stereo not drawn) | inconclusive [inhibitor, single point] | 
CCN(CC)CCn1c(-c2ccccc2)csc1=Nc1ccccc1 | inconclusive [inhibitor, single point] | 
Cc1cccc(N=C2NC(=O)/C(=C/C=C/c3ccco3)S2)c1C | inconclusive [inhibitor, single point] | 

Compound | Potency | activity change, negative = growth inhibition
O=C(Nc1ccc(Cl)c(S(=O)(=O)N2CCOCC2)c1)c1ccc(Cl)nc1 | inconclusive [inhibitor, single point] | 
COc1ccc(C2=NOC(C)(c3nnc(-c4ccc(Cl)cc4)o3)C2)cc1 (stereo not drawn) |  | inactive: -3.63%
CCCCC1(CC)SCC(=O)NC1=O (stereo not drawn) |  | inactive: -18.1%
COc1ccc(NC(=O)Cn2c(=O)n(Cc3ccccc3Cl)c(=O)c3cc(OC)c(OC)cc32)cc1OC | active: 3.26 µM | 
O=C1/C(=C/c2ccc([N+](=O)[O-])cc2)Oc2cc(O)ccc21 | inconclusive [inhibitor, full curve] | 
COc1ccc(S(=O)(=O)NCc2cc(=O)n(C)c(=O)n2C)cc1C | inconclusive [inhibitor, partial curve, poor fit] | 
CCCCN(CC)CCCNC(=O)C1CCCN(c2ncnc3c2nc2n3CCCCC2)C1 (stereo not drawn) |  | inactive: -14.3%
O=C(CCNC(=O)c1ccccc1Cl)Nc1cccc(C(F)(F)F)c1 |  | inactive: -9.74%
CN(C)/C=C1/C=C(c2ccccc2)OC1=O | inconclusive [inhibitor, single point] | 
Cc1ccc(OCCn2c(-c3ccc(Br)cc3)nc3ccccc3c2=O)cc1C |  | inconclusive: -15.3% [inhibitor]
Cc1ccc(NC(=O)NCCSc2ccc(C)cc2)cc1 |  | inactive: -18.4%
CN(C)CCOc1ccc2c(c1)C(=O)C(=Cc1ncc([N+](=O)[O-])n1C)C2 | active: 0.146 µM | 
Cc1cc2nc(C(C)(C)C)c(CC3CCCCC3)n2c(C)c1Br | inconclusive [inhibitor, single point] | 
CCCCCn1nc(C(=O)OCC(=O)c2c(N)n(C)c(=O)n(C)c2=O)c2ccccc2c1=O | inconclusive [inhibitor, single point] | 
CC(C)=CC/C=C1\CCC(C(=O)O)C(C(=O)O)C1 (stereo not drawn) | inconclusive [inhibitor, partial curve] | 
COc1ccccc1CCNC(=O)C(=O)c1cn(CC(=O)N2CCCC2)c2ccccc12 | inconclusive [inhibitor, partial curve, poor fit] | 
CC(C)C(C)/C=C/C(C)C1CCC2C3=CC=C4CC(O)CCC4(C)C3CCC21C (stereo not drawn) |  | inactive: -0.726%
COCCn1nnnc1C(c1ccc(C)cc1)N1CCN(Cc2ccc3c(c2)OCO3)CC1 (stereo not drawn) | active: 16.4 µM | 
COc1ccc(NC(=O)COC(=O)CCc2ccc(S(=O)(=O)N3CCOCC3)cc2)cc1OC |  | inactive: -4.94%
CCCc1nc(N)nc2c1C(=O)CC(C)(C)C2 |  | inactive: -16.3%
Cc1c(CC(=O)NCCc2ccccc2F)c(=O)oc2cc(O)c(Cl)cc12 |  | inactive: -16.9%
CCOC(=O)c1csc(NC(=O)Nc2cccc(Cl)c2)n1 | inconclusive [inhibitor, single point] | 
CCOC(=O)CN1C(c2ccccc2O)Nc2ccc(Br)cc2C1c1ccccc1 (stereo not drawn) |  | inactive: -3.32%
CC1(C(=O)NS(=O)(=O)Cc2ccccc2C(F)(F)F)CCN1C(=O)c1cccc(F)c1 (stereo not drawn) |  | inactive: 4.76%
Nc1ncnc2c1ncn2CCOc1ccccc1 |  | inactive: -21.7%

Compound | Potency | activity change, negative = growth inhibition
N=c1sccn1CC(=O)Nc1ccccc1Sc1ccccc1 |  | inactive: -21%
C#CCN(C[C@@H]1[C@@H](OC(=O)NCC2CCCCC2)[C@@H](OC(=O)NCC2CCCCC2)Cn2c(=O)n(CCCCCC)c(=O)n21)S(=O)(=O)c1ccc(C)cc1 | inconclusive [inhibitor, single point] | 
O=C(COc1ccccc1[N+](=O)[O-])N1CCC(c2nc3ccccc3o2)CC1 | inconclusive [inhibitor, single point] | 
CC(C)S(=O)(=O)c1oc(-c2cccs2)nc1S(=O)(=O)c1ccc(F)cc1 | active: 0.651 µM | 
O=C(Nc1ccc(-c2nc3ccccc3[nH]2)cc1)c1ccccc1NS(=O)(=O)c1ccc(F)cc1 |  | inactive: -4.21%
Cc1ccc(NC(=O)c2c(C)oc3ccc(O)c(CN4CCCCCC4)c23)cc1 | active: 14.6 µM | 
CCOc1cc2sc(N3CCC(C(=O)NCCCN4CCCC4=O)CC3)nc2cc1Br | inconclusive [inhibitor, single point] | 
CCn1cc(C(=O)NCC(=O)OC)c2cc(OC)c(OC)cc2c1=O |  | inactive: -4.74%
CCCC1NC(=O)c2cccnc2-n2c1nc1ccc(OC)cc1c2=O (stereo not drawn) |  | inactive: 9.99%
C=C(C)C(=O)Nc1cccc(C2=NOC3(C2)C[C@@H](C(N)=O)N(C(=O)CC(c2ccccc2)c2ccccc2)C3)c1 (stereo partly drawn) | inconclusive [inhibitor, single point] | 
COc1cc(/C=N/NC(=O)c2ccc(CN(C)S(=O)(=O)c3ccc(C)cc3)cc2)ccc1O | inconclusive [inhibitor, single point] | 
CO[C@@H]1[C@@H](O[C@@H]2O[C@H](C)[C@@H](O[C@H]3C[C@@](C)(O)[C@@H](O)[C@H](C)O3)[C@H](N(C)C)[C@H]2O)[C@@H](CC=O)C[C@@H](C)[C@@H](O[C@@H]2CC[C@H](N(C)C)[C@@H](C)O2)/C=C/C=C/C[C@@H](C)OC(=O)C[C@H]1O |  | inactive: -28.6% [at 21.1 µM]
Cc1ccc(-n2ncc3c(N(CC(C)C)CC(C)C)ncnc32)c(C)c1 | active: 20.6 µM | 
O=C(Nc1ccc(S(=O)(=O)NC2CCCCC2)cc1)c1ccco1 | inconclusive [inhibitor, partial curve] | 
Cc1cc(C)nc(SCCCn2c(=O)[nH]c3ccccc32)n1 | inconclusive [inhibitor, full curve, poor fit] | 
O=C(c1ccc(OC2CCN(CCc3ccccc3)CC2)cc1)N1CCCC1 |  | inactive: -9.67%
CCN(CCCNC(=O)c1cc(Nc2ccc(OC)cc2OC)nc2ccccc12)c1cccc(C)c1 | active: 20.6 µM | 
COc1ccc(OC)c(-n2c(=O)c3ccccc3c3ccccc3c2=O)c1 |  | inactive: -24.2%
CC(=O)N1CCCc2cc(S(=O)(=O)NCc3ccc(C)cc3)ccc21 | inconclusive [inhibitor, single point] | 
CN1CC(=O)Nc2ccc(Br)cc2C1=O |  | inactive: -2.98%
Cc1ccc(CCNC(=O)c2c(C)oc3nc(C)nc(N4CCOCC4)c23)cc1 | inconclusive [inhibitor, single point] | 
CN(Cc1cc(=O)n2ccsc2n1)Cc1nc2ccccc2c(=O)[nH]1 |  | inactive: 8.02%
CC(C)CC(OC(=O)c1ccco1)C(=O)NCC1CCCO1 (stereo not drawn) | inconclusive [inhibitor, single point] | 
